According to PubChem BioAssay AID2551 (National Center for Advancing Translational Sciences (NCATS), 2010):
Screen size: about 310,000 compounds; about 17,000 (5.5%) were called active. Not shown: some 11% with an inconclusive outcome. Calls follow the shape of the dose curve; as a rule, active = well fitted inhibition curve with a large enough effect; inconclusive = small, poorly fitted or top-dose-only effect, or effect the other way; inactive = no such curve, though single readings can be large or run the other way. The list shows a part of the results, in another mix than the full data. Some compounds were tested as several samples or in several runs, with calls that do not always agree.

Molecular target: Nuclear receptor ROR-gamma (Mus musculus) (UniProt P51450)
Sequence of UniProt P51450 (P51450 whole entry, looked up): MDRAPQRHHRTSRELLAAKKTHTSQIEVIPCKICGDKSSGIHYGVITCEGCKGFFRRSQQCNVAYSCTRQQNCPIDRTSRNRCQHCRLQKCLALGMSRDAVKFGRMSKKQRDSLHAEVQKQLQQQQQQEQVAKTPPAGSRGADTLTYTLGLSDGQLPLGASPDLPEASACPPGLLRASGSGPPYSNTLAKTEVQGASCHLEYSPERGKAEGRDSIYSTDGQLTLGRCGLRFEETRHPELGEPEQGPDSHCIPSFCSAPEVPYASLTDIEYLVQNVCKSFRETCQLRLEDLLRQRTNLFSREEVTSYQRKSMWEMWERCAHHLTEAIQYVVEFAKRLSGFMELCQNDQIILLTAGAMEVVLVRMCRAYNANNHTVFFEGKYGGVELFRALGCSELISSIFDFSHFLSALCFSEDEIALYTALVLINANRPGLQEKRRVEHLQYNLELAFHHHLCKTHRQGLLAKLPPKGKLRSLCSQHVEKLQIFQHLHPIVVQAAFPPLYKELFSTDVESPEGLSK
Assay: qHTS for inhibitors of ROR gamma transcriptional activity; also: nearly all actives have a fitted effect of over 60% in size
Conditions: Drosophila S2 Gal4-RORgamma UAS-luciferase reporter, 20 h; series mostly up to 53.6 µM; activity change, negative = inhibition: at the top concentration
Excerpt: NIH Molecular Libraries Probe Production Network [MLPCN] NIH Chemical Genomics Center [NCGC] MLPCN Grant: R03 DA026211-01 Assay Provider: Dan Littman, New York University Assay Overview: The retinoic acid-related orphan receptor (ROR) gamma is a transcription factor that has a central role in the differentiation of Th17 cells, a subset of T helper cells that secrete the inflammatory cytokines IL-17, IL-17F, and IL-22. Th17 cells have been implicated in graft versus host disease, autoimmune disease and asthma. ROR gamma is induced in naive T helper cells in the presence of TGF-beta combined with IL-6, IL-21, or IL-23, and thereafter directs the expression of the Th17 lineage cytokines. To study the mechanism of action of ROR gamma, an insect cell-based assay was screened. This Drosophila Schneider cell line was stably transfected with two vectors: a gene expressing a fusion of the Gal4 DNA binding domain and ROR gamma transactivation domain under the control of the metallothionine promoter and a Photinus luciferase reporter regulated by the Gal4 binding site enhancer, UAS. […] Small molecule inhibitors of ROR gamma activity are detected by a decrease in luciferase reporter activity.
Assay Protocol Summary: For screening, 600 cells in 4 uL/well were dispensed into white solid 1536-well plates (Grenier) using a solenoid-based dispenser. Following transfer of 23 nL compound or DMSO vehicle by a pin tool, the plates were incubated 1 hr at ambient temperature, and 1 uL/well copper sulfate (700 uM final concentration) was added. The plates were centrifuged 15 s at 1000 RPM and incubated 20 hr at ambient temperature. After addition of 1.5 uL Photinus luciferase detection reagent, the plates were incubated 10 min at ambient temperature and then read by an ViewLux (Perkin Elmer) to detect luminescence. Keywords: NIH Roadmap, MLPCN, MLI, MLSMR, qHTS, NCGC, qHTS, nuclear hormone receptor, retinoic acid-related orphan receptor, ROR gamma
% is scaled to controls: 0 for no effect and ±100 for the full control effect; potency is read from the fitted curve at half-maximal effect.

Potency, active:
Cc1ccc(S(=O)(=O)CCC(=O)c2ccc(F)cc2)cc1 3.98 µM, O=C(Nc1ccccc1C(=O)N/N=C/c1ccco1)c1ccc(F)cc1 1.12 µM, O=C(/C=C/c1ccc(Cl)cc1Cl)NC(=S)Nc1ccc(CN2CCOCC2)cc1 3.55 µM, Cc1ccc([N+](=O)[O-])cc1N=Nc1c(C)[nH]n(C(N)=S)c1=O 7.08 µM, CCNC(=S)N/N=C/c1cccs1 0.794 µM, CC1CCC2C(=O)N(c3ccc(C(=O)Oc4cccc5cccnc45)cc3)C(=O)C2C1 (stereo not given) 6.31 µM, CCOC(=O)c1cnc2ccccc2c1NCc1ccco1 6.31 µM, Cc1ccccc1NC(=S)NCCC(c1ccccc1)c1ccccc1 5.01 µM, COc1ccc(CSCC(=O)N/N=C/c2ccccc2O)cc1 0.708 µM, NNc1nc2cccnc2n(CCNc2ncc(C(F)(F)F)cc2Cl)c1=O 10 µM, CC(=O)OCCCNc1cc(Sc2nc3ccccc3s2)c2nonc2c1[N+](=O)[O-] 3.55 µM, COc1ccc(OC)c(-n2c(-c3cc(-c4ccccc4)n[nH]3)n[nH]c2=S)c1 7.94 µM, CCOC(=O)C(Sc1nnc(-c2ccncc2)o1)C(C)=O (stereo not given) 5.01 µM, COc1ccc2c(c1)Cc1sc(NC(=O)c3cccs3)nc1-2 7.94 µM, Fc1ccccc1NC(=S)N/N=C/c1ccccc1Br 3.16 µM, COc1cccc(C2=CC(c3cccc(OC)c3OC)n3nnnc3N2)c1 (stereo not given) 3.16 µM, O=C(N/N=C/c1ccc(Br)s1)c1ccccc1[N+](=O)[O-] 2.51 µM, Cc1ccc(Nc2nc3ccccc3c(=O)s2)cc1 6.31 µM, CNc1nc2ccccc2n1/N=C/c1cccc(OC)c1OC 12.6 µM, Oc1cccc(C=Nc2cccc3ccccc23)c1O 11.2 µM, Cc1ccc(NC(=O)CCC(=O)N/N=C/c2cc([N+](=O)[O-])ccc2O)cc1 12.6 µM, CCc1ccc(C(=O)Nc2nc3ccccc3[nH]2)cc1 2.24 µM, O=C(N/N=C\c1ccncc1)c1ccccc1O 11.2 µM, CCC(C)c1ccc(NC(=S)Nc2ccc(OC)cc2)cc1 (stereo not given) 7.08 µM, C(=N\Nc1nc2ccccc2[nH]1)/c1ccc2c(c1)OCO2 12.6 µM, Cc1c(C(=O)c2no[n+]([O-])c2C(=O)c2cnn(C)c2C)cnn1C 10 µM, Cc1ccc(C(=O)ONc2ccc(N=O)cc2)cc1 25.1 µM, CCc1ccccc1NC(=S)/N=C(\N)Nc1nc(C)c2cc(C)ccc2n1 2.82 µM, CC(Oc1ccc(Cl)cc1)C(=O)N/N=C/c1ccsc1 (stereo not given) 11.2 µM, O=c1c2c(-c3ccccc3)csc2ncn1/N=C/c1cccc([N+](=O)[O-])c1O 20 µM, C/C(=N\NC(=S)Nc1c(C)cccc1C)c1ccc(OC(F)F)cc1 3.16 µM, CCOc1ccc(NC(=S)N2CCN(C/C=C/c3ccccc3)CC2)cc1 14.1 µM

Potency, inactive:
C[C@@H](C(=O)O)[C@@H]1C[C@@]1(C)[C@@H](NC(=O)OCc1ccccc1)c1ccccc1, C[C@@H](C(=O)NCc1ccccc1)[C@H]1C[C@]1(C)[C@H](NC(=O)OCc1ccccc1)c1ccccc1, C1COC(NC(C2CC2)C2CC2)=N1, COc1ccc2c(c1)c(CC(=O)O)c(C)n2C(=O)c1ccc(Cl)cc1, Nc1nc(Cl)nc2c1ncn2[C@H]1C[C@H](O)[C@@H](CO)O1, CSc1ccc2c(c1)C(N1CCN(C)CC1)Cc1ccccc1S2 (stereo not given), Cc1oncc1C(=O)Nc1ccc(C(F)(F)F)cc1, C[C@]12CC[C@@H]3c4ccc(O)cc4CC[C@H]3[C@@H]1CC[C@@H]2O, CNCCCC12CCC(c3ccccc31)c1ccccc12, NC(=NCCCCCCN=C(N)/N=C(\N)Nc1ccc(Cl)cc1)/N=C(\N)Nc1ccc(Cl)cc1

Activity change, negative = inhibition, inactive:
CC(C)C1=CC2=CC[C@H]3[C@](C)(C(=O)O)CCC[C@]3(C)C2CC1 (stereo not given in full) 12%, C[C@@H]1O[C@@H](O[C@H]2[C@H](Oc3cc(O)c4c(c3)O[C@H](c3ccc(O)cc3)CC4=O)O[C@H](CO)[C@@H](O)[C@@H]2O)[C@H](O)[C@H](O)[C@H]1O 15.7%, CC1=CC(=O)c2ccccc2C1=O 7.62%, COC(=O)[C@@]1(Cc2ccc(F)cc2)[C@H]2c3cc(C(=O)N(C)C)n(Cc4ccccn4)c3C[C@H]2CN1C(=O)c1ccccc1 -0.912%, C[C@H]1CC[C@@]2(O[C@@H](CCO)C[C@@H](O)[C@@H]2O)O1 6.43%, OCCN1CCN(CC/C=C2\c3ccccc3Sc3ccc(C(F)(F)F)cc32)CC1 0.427% [at 16.9 µM], COC(=O)C1=C(C)N(Cc2ccco2)C(=O)N[C@H]1c1cccc(C(F)(F)F)c1 -36.2%, CCCC[C@@H]1C[C@H]1[C@@H](NC(=O)c1ccccc1)c1ccccc1C(F)(F)F 11.5%, CCOc1ccc(N=C(/C(C(=O)C(=O)N2CCOCC2)=C(\O)c2ccccc2)c2ccccc2)cc1 -88.9%, CC12CCC(CC1=O)C2(C)C (stereo not given) 8.81%, C[C@@]12CCC=C[C@H]1[C@H](c1ccc3ccccc3c1)N(Cc1ccccc1)C2=O -3.51%, CC1(C)OC(C(O)(c2ccccc2)c2ccccc2)C(C(O)(c2ccccc2)c2ccccc2)O1 (stereo not given) 7.79% [at 10 µM], CCOC(=O)Cc1csc(NC(=O)/C=C\c2ccccc2Cl)n1 -42.7%, COc1cc([C@H]2c3cc4c(cc3[C@@H](O[C@H]3O[C@H]5CO[C@@H](C)O[C@H]5[C@@H](O)[C@@H]3O)[C@@H]3COC(=O)[C@H]23)OCO4)cc(OC)c1O -32.5% [at 16.9 µM], CCO[C@@H]1OC(C(=O)Nc2ccccc2)=C[C@H](c2csc3ccccc23)[C@H]1CCCO -24.2%, CCc1cc2c(nc1CC)CCN(CC/C(C)=N/OC[C@H]1O[C@H](c3ccccc3)C=C[C@@H]1Oc1ccc(OC)cc1)C2 -2.48% [at 10 µM], C/C=C(/C)C(=O)OC1Cc2c(ccc3ccc(=O)oc23)OC1(C)C (stereo not given) -2.32%, CCCCC[C@H](O)/C=C/C1=C(CCCCCCC(=O)O)C(=O)CC1 -36.8%, COC1=C2C[C@H](C)C[C@H](OC)[C@H](O)[C@@H](C)/C=C(/C)[C@H](OC(N)=O)[C@@H](OC)/C=C\C=C(\C)C(=O)NC(=CC1=O)C2=O 10.9%, CC1(COc2ccc(C[C@H]3SC(=O)NC3=O)cc2)CCCCC1 3.78%, COC(=O)[C@@]1(Cc2ccc(OC)cc2)[C@H]2c3cc(C(=O)N4CCCC4)n(CCSCCO)c3C[C@H]2CN1C(=O)c1ccccc1 19.5%, CCN1C/C(=C\c2cccc([N+](=O)[O-])c2)C(=O)/C(=C/c2cccc([N+](=O)[O-])c2)C1 29.5%, NNC(=O)[C@H]1C[C@@H]1c1ccccc1 -6.74% [at 10 µM], O=C(CCCN1C(=O)/C(=C\c2cccs2)SC1=S)Nc1ccc(C(=O)O)cc1 8.29%, COC(=O)[C@H](C)[C@@H]1C[C@@]1(C)[C@@H](NC(=O)OCc1ccccc1)c1ccccc1 12.6%, O=C(C1=C[C@H](c2coc3ccccc3c2=O)C[C@H](OCCCCO)O1)N1CCOCC1 25.5%, Cc1cc(NC(=O)Nc2ccc(N(C)C)cc2)c2cc(F)cc(F)c2n1 18.6%, CCCCC(=O)O[C@@]1(C(=O)CO)C(C)CC2C3CCC4=CC(=O)C=C[C@@]4(C)[C@]3(F)C(O)C[C@]21C (stereo not given in full) -35.5%, Clc1ccc(Cn2c(CN3CCCC3)nc3ccccc32)cc1 -25.5% [at 2.98 µM], O=C1/C(=C/c2cccs2)SC(=S)N1C1CCS(=O)(=O)C1 (stereo not given) -11.4%, COc1ccc(Br)cc1[C@H]1[C@@H]2C=CCC[C@@]2(C)C(=O)N1Cc1ccccc1 20.3%, CCCCCCCCCCCCCCCC(O)C(N)CO (stereo not given) 18.2%, CCOC(=O)[C@@H]1[C@H]2COc3ccccc3[C@H]2N2C(=O)N(c3ccccc3)C(=O)[C@]12C -1.93%, COC(=O)[C@@]1(Cc2ccc(F)cc2)[C@H]2c3cc(C(=O)N4CCCC4)n(CCc4ccccn4)c3C[C@H]2CN1C(=O)c1ccccc1 36.9%, O=C(O)/C(=C1/OC(=O)c2ccccc21)c1ccccc1 -30.1%, O=C(O)c1cccc(-n2cccc2/C=C/[N+](=O)[O-])c1 21.3%, CC1=CC(C)=Nc2ccc(C)cc2N1 35.4%, CC(Sc1ccc2ccccc2n1)C(=O)O (stereo not given) -14.8%, COc1cc2nc(N3CCN(C(=O)[C@@H]4CCCO4)CC3)nc(N)c2cc1OC -2.58% [at 16.9 µM], CCOc1ccc(/C=C2\SC(=S)N(CCC(=O)Nc3ccc(C(=O)O)cc3)C2=O)cc1 11.2%, CCCCCC(O)c1cccc(OCc2ccc3ccccc3n2)c1 (stereo not given) 19.7%, CC(=O)OCC1OC(C#CC(C)(C)C)C=CC1OC(C)=O (stereo not given) 23.9% [at 10 µM], c1ccc(C2[C@H]3CN(Cc4cccnc4)[C@H](c4ccccc4)C34CC2(c2cccnc2)C4)cc1 (stereo not given in full) -48.1%, COc1ccc(C2/C=C\CN(C(=O)c3ccc(C)cc3)C(Cc3ccccc3)C(=O)N2Cc2ccc(F)cc2)cc1 (stereo not given) -39.5%, COC(=O)[C@@H]1CC[C@H](C)[C@@H](c2ccc(C)cc2)N1C(=O)c1ccc(/C=N\OC[C@@H](O)COCc2ccco2)cc1 18.3% [at 10 µM], COc1ccc(NC(=O)OCCN2CCN(Cc3ccccc3)CCC2=O)cc1 14%, C[C@@]12CC[C@@H]3c4ccc(O)cc4CC[C@H]3[C@H]1CC[C@H]2O -29.1% [at 16.9 µM], COc1ccc2c(c1)O[C@@H](c1cccc(C(F)(F)F)c1)[C@H](O)C2=O -9.23%
